Assay results taken from patent publication USRE49495E1, “Binding polypeptides having a mutated scaffold” (Affibody AB, priority 2013, dated 2023).

How the values were obtained:
[1] = Accelerated stability study of C5 binding polypeptides, 2 weeks at 37° C., SDS-PAGE and Reversed Phase HPLC (RPC); format: physicochemical; details: for stability when compared with PSI0242: conclusion from Table 1, 2 weeks at 37° C.
[2] = Far UV circular dichroism, secondary structure content estimated with CDNN; format: physicochemical; details: secondary structure content by CD, 0.17 mg/ml, Pi buffer pH 7.0
Description: The CD spectra were recorded by a J-720 CD spectropolarimeter (Jasco, Japan). The samples were diluted to 0.17 mg/ml protein concentration using Pi buffer (5 mM Na—K—PO4, pH 7.0). A CD spectrum of Pi buffer was firstly recorded, then spectra were recorded for each of the samples and lastly for the Pi buffer again. […] The buffer spectrum was smoothened using the Savitzky-Golay procedure with convolution width of 25. The other spectra were smoothened according to the same procedure with a convolution width of 15. The smoothened buffer spectrum was then subtracted from each of the other smoothened spectra. […] The integrity of the secondary structure content was compared to the recombinantly produced PSI0257 (SEQ ID NO:26).

human C5 = target: T1, human C5 (Homo sapiens, UniProt P01031); experiment: Inhibition of hemolysis of antibody sensitized sheep erythrocytes (classical complement pathway); format: cell-based
T1 construct: purchased

[3] = Three month stability test at 37° C., RPC main peak
[4] = RPC, after 2 weeks at 37° C., 25 mM NaP/125 mM NaCl pH 7.0
[5] = RPC, data from Example 2 repeated in Table 8

Molecule	Main peak (% of total protein) [1, 4] [%]	stability when compared with PSI0242 [1]	2 weeks, 37° C. Main peak (% of total protein) [1, 5] [%]	3 months, 37° C. Main peak (% of total protein) ([3]; RPC) [%]	also measured
PSI0369: modified C5 binding polypeptide fused to albumin binding domain (protein, Engineered C5 binding Z variant) AEAKYAKEVLEAWDEIDRLPNLTIEQWLAFINKLDDDPSQSSELLSEAKKLNDSQAPLAEAKEAANAELDSYGVSDFYKRLIDKAKTVEGVEALKDAILAALP	90	increased stability			
PSI0257: recombinant control C5 binding polypeptide (protein, Engineered C5 binding Z variant) AEAKYAKEVLEAWDEIDRLPNLTIEQWLAFINKLDDDPSQSSELLSEAKKLNDSQAPKVDGS					Antiparallel [2]: 3%; Beta-Turn [2]: 13%; Helix [2]: 63%; Parallel [2]: 3%; Rndm. Coil [2]: 13%
PSI0242: known control C5 binding Z variant fused to albumin binding domain; positions 1-60 are Z06175a of WO2013/126006 (protein, Engineered C5 binding Z variant) AEAKYAKEVLEAWDEIDRLPNLTIEQWLAFINKLDDDPSQSSELLSEAKKLNDSQAPKVDGSLAEAKEAANAELDSYGVSDFYKRLIDKAKTVEGVEALKDAILAALP	57				
PSI0332: modified C5 binding polypeptide fused to albumin binding domain (protein, Engineered C5 binding Z variant) AEAKYAKEVLEAWDEIDRLPNLTIEQWLAFINKLDRQPEQSSELLSEAKKLNDSQAPKVDGSLAEAKEAANAELDSYGVSDFYKRLIDKAKTVEGVEALKDAILAALP	57				
PSI0335: modified C5 binding polypeptide fused to albumin binding domain (protein, Engineered C5 binding Z variant) AEAKYAKEVLEAWDEIDRLPNLTIEQWLAFINKLDDDPSQSSELLSEAKKLNDSQAPKVDGSLAEAKVLANRELDKYGVSDFYKRLINKAKTVEGVEALKLHILAALP	57				
PSI0336: modified C5 binding polypeptide fused to albumin binding domain (protein, Engineered C5 binding Z variant) AEAKYAKEVLEAWSEIDRLPNLTIEQWLAFINKLDDDPSQSSELLSEAKKLNDSQAPKVDGSLAEAKEAANAELDSYGVSDFYKRLIDKAKTVEGVEALKDAILAALP	57				
PSI0339: modified C5 binding polypeptide fused to albumin binding domain (protein, Engineered C5 binding Z variant) AEAKYAKEVLEAWDEIDRLPNLTIEQWLAFIAKLDDDPSQSSELLSEAKKLNDSQAPKVDGSLAEAKEAANAELDSYGVSDFYKRLIDKAKTVEGVEALKDAILAALP	57				
PSI0378: C5 binding polypeptide fused to albumin binding domain; ND to SE in positions 52-53 (protein, Engineered C5 binding Z variant) AEAKYAKEVLEAWDEIDRLPNLTIEQWLAFINKLDDDPSQSSELLSEAKKLSESQAPKVEGSLAEAKEAANAELDSYGVSDFYKRLIDKAKTVEGVEALKDAILAALP	89	increased stability	89	59	function in the hemolysis assay (human C5): do not significantly differ from the reference compound PSI0242; stability after 3 months at 37° C. compared with PSI0242 after 2 weeks [3]: higher proportion of protein in the original form
PSI0403: C5 binding polypeptide fused to albumin binding domain; D to E in position 53 (protein, Engineered C5 binding Z variant) AEAKYAKEVLEAWDEIDRLPNLTIEQWLAFINKLDDDPSQSSELLSEAKKLNESQAPKVEGSLAEAKEAANAELDSYGVSDFYKRLIDKAKTVEGVEALKDAILAALP	77	increased stability	77	35	
PSI0379: C5 binding polypeptide fused to albumin binding domain; ND to SE in positions 52-53 (protein, Engineered C5 binding Z variant) AEAKYAKEVLEAWDEIDRLPNLTIEQWLAFINKLDDDPSQSSELLSEAKKLSESQAPKVAGSLAEAKEAANAELDSYGVSDFYKRLIDKAKTVEGVEALKDAILAALP					2 weeks, 37° C. Main peak (% of total protein) [1]: 88%; Main peak (% of total protein) ([1]; pH 7): 88%; 3 months, 37° C. Main peak (% of total protein) [3]: 58%
PSI0340: modified C5 binding polypeptide fused to albumin binding domain (protein, Engineered C5 binding Z variant) AEAKYAKEVLEAWDEIDRLPNLTIEQWLAFINKLEDDPSQSSELLSEAKKLNDSQAPKVDGSLAEAKEAANAELDSYGVSDFYKRLIDKAKTVEGVEALKDAILAALP	67	increased stability			
PSI0337: modified C5 binding polypeptide fused to albumin binding domain (protein, Engineered C5 binding Z variant) AEAKYAKEVLEAWDEIERLPNLTIEQWLAFINKLDDDPSQSSELLSEAKKLNDSQAPKVDGSLAEAKEAANAELDSYGVSDFYKRLIDKAKTVEGVEALKDAILAALP	57				
PSI0334: modified C5 binding polypeptide fused to albumin binding domain; ND to SE in positions 52-53 (protein, Engineered C5 binding Z variant) AEAKYAKEVLEAWDEIDRLPNLTIEQWLAFINKLDDDPSQSSELLSEAKKLSESQAPKVDGSLAEAKEAANAELDSYGVSDFYKRLIDKAKTVEGVEALKDAILAALP	73	increased stability	73	16	
PSI0381: C5 binding polypeptide fused to albumin binding domain; ND to ES in positions 52-53 (protein, Engineered C5 binding Z variant) AEAKYAKEVLEAWDEIDRLPNLTIEQWLAFINKLDDDPSQSSELLSEAKKLESSQAPKVEGSLAEAKEAANAELDSYGVSDFYKRLIDKAKTVEGVEALKDAILAALP	87	increased stability	87	46	
PSI0410: C5 binding polypeptide fused to albumin binding domain (protein, Engineered C5 binding Z variant) AEAKYAKEVLEAWDEIDRLPNLTIEQWLAFINKLDDDPSQSSELLSEAKKLNDSQAPKVEGSLAEAKEAANAELDSYGVSDFYKRLIDKAKTVEGVEALKDAILAALP	72	increased stability	72	16	function in the hemolysis assay (human C5): do not significantly differ from the reference compound PSI0242
PSI0404: C5 binding polypeptide fused to albumin binding domain; N to S in position 52 (protein, Engineered C5 binding Z variant) AEAKYAKEVLEAWDEIDRLPNLTIEQWLAFINKLDDDPSQSSELLSEAKKLSDSQAPKVEGSLAEAKEAANAELDSYGVSDFYKRLIDKAKTVEGVEALKDAILAALP	88	increased stability	88	46	

Where two headings read alike, the source gives them in different places.
